In the RNAGym collection of RNA variant scans (doi:10.7554/elife.90254) one finds self-cleavage data, which are given here for 56 variants.

The source gives no read counts; variants with many changes may rest on few reads.

To fix the notation:
B1: LINE1-mini (parent)
chain: GGCAGAGCUCAACACAGCGUGGCAAAGUGGCUGUGGCUAGACUGCC

The series covers variants of B1. Description: self-cleavage, relative activity (ratio to wild type); higher = more cleavage; in vitro, sequencing; the parent is a self-cleaving ribozyme.
For GGCAGAGCUCAACACAGCGUGGCAAAUUGGCCGUGGCUAGAUUGCC, the self-cleavage stood at 0.05.

On to GGCAGAGCUCAACACAGCGUGGCAAAGAGGCUGUGACUAUGCUGCA, for which the self-cleavage was 0.29.

As to GGCAGAGCUCAACACAGCGUGGCAAAGGGGCUUUGGCGAGAUUGCC, the self-cleavage came out at 0.14.

GGCAGAGCUCAACACAGCGUGGCAAAGUUGCUGCGGCUGGACUGCC: the self-cleavage is 0.02.

Take GGCAGAGCUCAACACAGCGUGGCAAAGUCGCUGUAGCUAGACUGGC: the self-cleavage is 0.04.

As to GGCAGAGCUCAACACAGCGUGGCAAAGUUGCUGUGGCUAGACUCCA, the self-cleavage came to 0.04.

With GGCAGAGCUCAACACAGCGUGGCAAAGGAGUUGUGGCUAGACUGCC, the self-cleavage stood at 1.15.

As to GGCAGAGCUCAACACAGCGUGGCAAAGUGACUGUGGCUCGACCGCC, the self-cleavage turned out to be 0.04.

With GGCAGAGCUCAACACAGCGUGGCAAAGUUGCUUUGGCUGGACUGCC, the self-cleavage is 0.04.

Turning to GGCAGAGCUCAACACAGCGUGGCAAAGCGGCUGUGGCUAGGCUGAC, the self-cleavage came to 0.06.

On to GGCAGAGCUCAACACAGCGUGGCAAAGUUGCUGUGACGAGACUGCC, for which the self-cleavage came to 0.04.

GGCAGAGCUCAACACAGCGUGGCAAAGGGGCAGGCGCCAGACUGCC: the self-cleavage was found to be 0.05.

On to GGCAGAGCUCAACACAGCGUGGCAAAGUAGCUGUGCUUAGACUGCC, for which the self-cleavage was 0.02.

Take GGCAGAGCUCAACACAGCGUGGCAAAGAGGCUUUGGCUAGACUGCU: the self-cleavage was determined as 0.28.

On to GGCAGAGCUCAACACAGCGUGGCAAAGGGACUGUGCCUAGACUGCC, for which the self-cleavage worked out at 0.02.

On to GGCAGAGCUCAACACAGCGUGGCAAAGCGGCUGUGGCUAUACUCCC, for which the self-cleavage was determined as 0.02.

For GGCAGAGCUCAACACAGCGUGGCAAAGUUGCCGUGGCUAGACUGCU, the self-cleavage stood at 0.17.

For the variant GGCAGAGCUCAACACAGCGUGGCAAAGCGGCCGUGGCUAGACUUCC, the self-cleavage was 0.

For the variant GGCAGAGCUCAACACAGCGUGGCAAAUUGGCUGUGGCGAGACUUCC, the self-cleavage amounted to 0.02.

For the variant GGCAGAGCUCAACACAGCGUGGCAAAGUGAUUGUGGCUAGAUUGCC, the self-cleavage came to 0.05.

In the case of GGCAGAGCUCAACACAGCGUGGCAAAGUUGCUGUGGCUAAACAGCC, the self-cleavage was 0.1.

Turning to GGCAGAGCUCAACACAGCGUGGCAAAGGGGCUGUGGCUCCACUGCC, the self-cleavage stood at 0.02.

With GGCAGAGCUCAACACAGCGUGGCAAAGUAGCUGGGGCUAGACAGCC, the self-cleavage came out at 0.37.

Turning to GGCAGAGCUCAACACAGCGUGGCAAAGUUGCUGUGGCCAGACUACA, the self-cleavage was 0.1.

With GGCAGAGCUCAACACAGCGUGGCAAAGAGGCUGUAGUUGGACUGCC, the self-cleavage amounted to 0.

For the variant GGCAGAGCUCAACACAGCGUGGCAAAGAGGCUGUUGCUAGACUGCU, the self-cleavage was 0.1.

As for GGCAGAGCUCAACACAGCGUGGCAAAGUUGCUGUGGCUAGAUUACC, the self-cleavage stood at 0.04.

Turning to GGCAGAGCUCAACACAGCGUGGCAAAGAGCCUGUGGCUAGCCUGCC, the self-cleavage is 0.12.

On to GGCAGAGCUCAACACAGCGUGGCAAAGUUGCGGUGGGUGGACUGCC, for which the self-cleavage amounted to 0.04.

In the case of GGCAGAGCUCAACACAGCGUGGCAAAGUUGCUGUGGCUAUUCUGCA, the self-cleavage stood at 0.32.

On to GGCAGAGCUCAACACAGCGUGGCAAAGUCGCGGUGGCUAGAGUGCC, for which the self-cleavage came to 0.14.

For the variant GGCAGAGCUCAACACAGCGUGGCAAAGGGGCUGUGCAUGGACUGCC, the self-cleavage is 0.08.

As to GGCAGAGCUCAACACAGCGUGGCAAAGGGGCUGUGGCGAGAAUGCC, the self-cleavage was found to be 0.01.

Consider GGCAGAGCUCAACACAGCGUGGCAAAGUCGAUGUCGCUAGACUGAC, for which the self-cleavage is 0.02.

For the variant GGCAGAGCUCAACACAGCGUGGCAAAGUACCUGUUGCUAGACUGCC, the self-cleavage was 0.02.

Take GGCAGAGCUCAACACAGCGUGGCAAAGUGACUGUGGUUAGACUUCC: the self-cleavage was 0.01.

For GGCAGAGCUCAACACAGCGUGGCAAAGUAGCGGUGGCUAGAUUGCC, the self-cleavage came out at 0.01.

With GGCAGAGCUCAACACAGCGUGGCAAAGCGGCUGUGGCUAGUCUACC, the self-cleavage turned out to be 0.16.

With GGCAGAGCUCAACACAGCGUGGCAAAGUCGCUGUGGCUAGCUUGCC, the self-cleavage was 0.04.

As to GGCAGAGCUCAACACAGCGUGGCAAAGGGGCUGUCGCUAAACUGCC, the self-cleavage was found to be 0.11.

In the case of GGCAGAGCUCAACACAGCGUGGCAAAGUUGCUGUGGCUAGUCUCCC, the self-cleavage was determined as 0.15.

As for GGCAGAGCUCAACACAGCGUGGCAAAGCGGCUGUGGGUAGGCUGCC, the self-cleavage is 0.01.

For the variant GGCAGAGCUCAACACAGCGUGGCAAAGUCGCUGGGGCUAUAGUGCC, the self-cleavage was 0.01.

Regarding GGCAGAGCUCAACACAGCGUGGCAAAUUGGCUGUGGCGUGACUGCU, the self-cleavage came out at 0.05.

As to GGCAGAGCUCAACACAGCGUGGCAAAGAGGGUGUAGCCAGACUGCC, the self-cleavage was found to be 0.06.

Regarding GGCAGAGCUCAACACAGCGUGGCAAAGAUGCAGUGGCUAGACUGCC, the self-cleavage was 0.27.

For the variant GGCAGAGCUCAACACAGCGUGGCAAAGGGGCUGUGGCUAGACCACC, the self-cleavage turned out to be 0.01.

Consider GGCAGAGCUCAACACAGCGUGGCAAAGUAGCUGUGGCCAGAUUGCC, for which the self-cleavage worked out at 1.31.

GGCAGAGCUCAACACAGCGUGGCAAAGUAUCUGUGCCUAGACUGCC: the self-cleavage was found to be 0.04.

In the case of GGCAGAGCUCAACACAGCGUGGCAAAGUAGCUGUGGCCAGACUGUU, the self-cleavage was determined as 0.8.

For the variant GGCAGAGCUCAACACAGCGUGGCAAAGUUGCUGCGGCUAGACAGAC, the self-cleavage is 0.01.

On to GGCAGAGCUCAACACAGCGUGGCAAAGUGACUCUGGCUAGUCUGCC, for which the self-cleavage turned out to be 0.08.

As to GGCAGAGCUCAACACAGCGUGGCAAAGCGACAGUGGCUAUACUGAC, the self-cleavage came out at 0.07.

For the variant GGCAGAGCUCAACACAGCGUGGCAAAGUCGCUGUGACUAGACUGCU, the self-cleavage stood at 0.09.

With GGCAGAGCUCAACACAGCGUGGCAAAGUUUCGGUAGAUAGACAGCC, the self-cleavage was found to be 0.1.

For the variant GGCAGAGCUCAACACAGCGUGGCAAAGUCCCUGUGGCUUGACUGCC, the self-cleavage stood at 0.09.
